{"source": "PubChem BioAssay AID1347165", "about": "(National Center for Advancing Translational Sciences (NCATS), 2019)", "note": "About 5,700 (2.6%) of roughly 220,000 compounds were called active. The inconclusive results got no clear call from the source; some entries with a clear call stand among them for comparison. Calls come from the whole dose curve; as a rule, active = well fitted inhibition curve with a large enough effect; inconclusive = small, poorly fitted or top-dose-only effect; inactive = no such curve, though single readings can be large or run the other way. Potencies beside an inconclusive call are fits to weak or partial responses and may not hold up. Potency is the fitted concentration of half-maximal effect; tags give direction and shape of the fitted curve."}
{"molecular_target": "Lysine-specific demethylase 5B (Homo sapiens) (UniProt Q9UGL1)", "sequence (Q9UGL1 whole entry, looked up)": "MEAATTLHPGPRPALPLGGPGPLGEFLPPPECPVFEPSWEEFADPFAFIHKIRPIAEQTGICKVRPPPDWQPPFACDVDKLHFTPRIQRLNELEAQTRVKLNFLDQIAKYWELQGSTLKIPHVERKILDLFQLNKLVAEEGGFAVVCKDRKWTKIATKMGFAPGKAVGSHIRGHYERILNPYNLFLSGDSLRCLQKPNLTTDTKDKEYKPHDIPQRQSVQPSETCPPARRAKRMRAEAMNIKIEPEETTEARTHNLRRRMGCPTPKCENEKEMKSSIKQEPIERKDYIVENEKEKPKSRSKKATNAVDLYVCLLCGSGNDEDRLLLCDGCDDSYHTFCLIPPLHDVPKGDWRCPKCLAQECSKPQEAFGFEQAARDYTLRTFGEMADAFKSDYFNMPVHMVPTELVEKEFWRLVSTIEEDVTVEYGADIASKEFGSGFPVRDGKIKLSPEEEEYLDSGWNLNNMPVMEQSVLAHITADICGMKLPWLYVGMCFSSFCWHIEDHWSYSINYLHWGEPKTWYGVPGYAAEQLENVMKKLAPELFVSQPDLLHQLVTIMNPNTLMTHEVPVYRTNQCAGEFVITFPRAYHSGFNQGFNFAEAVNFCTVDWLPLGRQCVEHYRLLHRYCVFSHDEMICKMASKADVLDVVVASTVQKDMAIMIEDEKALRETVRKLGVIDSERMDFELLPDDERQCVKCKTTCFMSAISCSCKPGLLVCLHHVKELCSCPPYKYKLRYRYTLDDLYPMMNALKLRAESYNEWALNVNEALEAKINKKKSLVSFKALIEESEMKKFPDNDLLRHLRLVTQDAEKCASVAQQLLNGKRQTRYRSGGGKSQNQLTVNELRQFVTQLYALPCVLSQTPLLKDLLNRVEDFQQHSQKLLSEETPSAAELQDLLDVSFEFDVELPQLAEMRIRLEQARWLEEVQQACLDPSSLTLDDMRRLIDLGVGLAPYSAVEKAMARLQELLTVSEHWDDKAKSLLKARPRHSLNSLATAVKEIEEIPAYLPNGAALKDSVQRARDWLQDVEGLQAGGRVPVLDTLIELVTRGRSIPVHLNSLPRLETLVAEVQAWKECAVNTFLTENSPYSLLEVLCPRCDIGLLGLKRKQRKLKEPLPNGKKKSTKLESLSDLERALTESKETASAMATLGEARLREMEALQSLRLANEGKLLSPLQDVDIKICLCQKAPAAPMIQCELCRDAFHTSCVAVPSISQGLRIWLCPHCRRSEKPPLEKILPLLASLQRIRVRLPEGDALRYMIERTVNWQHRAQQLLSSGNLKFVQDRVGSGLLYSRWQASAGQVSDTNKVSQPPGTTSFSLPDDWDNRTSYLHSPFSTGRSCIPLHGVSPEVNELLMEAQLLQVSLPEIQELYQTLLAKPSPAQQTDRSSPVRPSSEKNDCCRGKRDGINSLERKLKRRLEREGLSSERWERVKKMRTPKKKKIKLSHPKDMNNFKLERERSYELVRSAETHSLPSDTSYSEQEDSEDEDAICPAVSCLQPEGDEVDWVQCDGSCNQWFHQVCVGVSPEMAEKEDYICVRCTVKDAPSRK", "assay": "Primary screen for KDM5B Histone Demethylases FDH-coupled qHTS; note: nearly all actives have a fitted effect of over 70% in size; for activity change, negative = inhibition: 0% is about no effect", "details": "FDH-coupled NADH fluorescence (FDH is formaldehyde dehydrogenase); activity change, negative = inhibition: at 57.7 µM (top of the series) unless noted", "in_short": "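Here, H3K4me3 peptide (12.5 µM in substrate mix) is demethylated by KDM5BΔAP, 200 nM final, after 10 min compound exposure. Formaldehyde product is coupled through FDH (0.25 U/mL in mix) to NADH fluorescence; 30-min ΔRFU feeds dose-response curves.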"}
{"compound": "COc1ccc(-c2nn(-c3ccccc3C)cc2CN2CCN(C)C(=O)[C@@H]2C)cc1F", "Potency": "inconclusive: 11.2 µM [inhibitor, partial curve]"}
{"compound": "Cc1nc2ccc(N=NN(C)C)cc2[nH]1", "Potency": "inconclusive: 17.8 µM [inhibitor, partial curve, poor fit]"}
{"compound": "COc1ccc2c(c1)Cc1sc(NC(=O)c3cccc(Br)c3)nc1-2", "Potency": "inconclusive: 1.41 µM [inhibitor, full curve, poor fit]"}
{"compound": "COc1ccc(C(=O)NCC2Cn3cccc3C(=O)N2CC(C)C)cc1", "note": "(configuration not stated)", "activity change, negative = inhibition": "inactive: -18.4%"}
{"compound": "Cn1c(CNC(=O)C2CCCN(Cc3ccncc3)CCC(=O)NCC2)nc2ccccc21", "note": "(configuration not stated)", "Potency": "inconclusive: 39.8 µM [inhibitor, single point]"}
{"compound": "Cc1cc(Cl)ccc1S(=O)(=O)N1CCCC(Cn2c(C)nc3cccnc32)C1", "note": "(configuration not stated)", "activity change, negative = inhibition": "inactive: -5.42%"}
{"compound": "S=C(NCc1ccccc1Cl)Nc1cc(Cl)cc(Cl)c1", "Potency": "inconclusive: 1.78 µM [inhibitor, partial curve, poor fit]"}
{"compound": "COc1ccc(C(=O)/C=C/c2ccc(Br)cc2)cc1CSCC(=O)O", "activity change, negative = inhibition": "inactive: 6.08%"}
{"compound": "COc1ccccc1C(=O)Nc1ccc(C(=O)OCc2cc(=O)n3nc(C)sc3n2)cc1", "Potency": "inconclusive: 1.12 µM [inhibitor, full curve, poor fit]"}
{"compound": "Cc1ccc(C2C(c3ccccc3)=C(O)C(=O)N2Cc2ccccc2)cc1", "note": "(configuration not stated)", "activity change, negative = inhibition": "inactive: -5.09%"}
{"compound": "O=C(c1cc(C2CC2)nc2ccccc12)N1CCCC(C(F)(F)F)C1", "note": "(configuration not stated)", "activity change, negative = inhibition": "inactive: 1.34%"}
{"compound": "COc1cc(CNC(=O)c2ccc3c(c2)NC(C)(CNc2ccccc2)CO3)cc(OC)c1", "note": "(configuration not stated)", "Potency": "inconclusive: 17.8 µM [inhibitor, single point]"}
{"compound": "Cc1csc2nc(-c3ccc(NS(=O)(=O)c4cc(F)ccc4F)cc3)cn12", "Potency": "inconclusive: 2.51 µM [inhibitor, partial curve, poor fit]"}
{"compound": "COC(=O)[C@]12C[C@H](CC(=O)NCCc3ccccc3OC)C(=O)N(CCC3=CCCCC3)C1=C[C@H](C(C)C)O[C@@H]2C1CC1", "Potency": "inconclusive: 25.1 µM [inhibitor, partial curve, poor fit]"}
{"compound": "CSc1nc(C)c(CCC(=O)Nc2nc(-c3ccc4c(c3)CCO4)cs2)c(C)n1", "activity change, negative = inhibition": "inactive: 8.77%"}
{"compound": "COCC1CN(C2CCC2)CC12CCN(Cc1cccc(OC)c1OC)CC2", "note": "(configuration not stated)", "Potency": "inconclusive: 15.8 µM [inhibitor, single point]"}
{"compound": "O=C(c1ccccc1F)N1CCC2(CC1)CC(N(Cc1ccccc1)C1CC1)CCO2", "note": "(configuration not stated)", "activity change, negative = inhibition": "inactive: -18.8%"}
{"compound": "O=C(Nc1ccc2c(c1)OCO2)C1CC(=O)N(c2n[nH]c3cc(Br)ccc23)C1", "note": "(configuration not stated)", "Potency": "inconclusive: 25.1 µM [inhibitor, partial curve]"}
{"compound": "Cc1ccc(S(=O)(=O)c2cn(CC(=O)Nc3cccc(C)c3)c3cc4c(cc3c2=O)OCO4)cc1", "Potency": "inconclusive: 28.2 µM [inhibitor, partial curve, poor fit]"}
{"compound": "CCC1CCc2nc(N)c(C#N)c(-c3ccccc3Cl)c2C1", "note": "(configuration not stated)", "Potency": "inconclusive: 1.78 µM [inhibitor, partial curve, poor fit]"}
{"compound": "Cc1ccc(CNS(=O)(=O)c2cc3c(cc2Cl)NC(=O)CO3)o1", "Potency": "inconclusive: 15.8 µM [inhibitor, partial curve, poor fit]"}
{"compound": "COc1cc(OC)c(C(=O)N[C@H]2COC[C@H]2Cc2cc(C)no2)cc1OC", "Potency": "active: 20 µM"}
{"compound": "COc1ccc(N2CC(c3noc(-c4ccc(Cl)cc4OC)n3)CC2=O)cc1", "note": "(configuration not stated)", "Potency": "inconclusive: 31.6 µM [inhibitor, partial curve]"}
{"compound": "Cc1c(CC(=O)NCc2ccon2)c2c(n1Cc1ccccc1F)CCCC2=O", "Potency": "inconclusive: 15.8 µM [inhibitor, partial curve, poor fit]"}
{"compound": "CCOC(=O)COc1nc(C)cc(C(F)(F)F)c1C#N", "Potency": "inconclusive: 25.1 µM [inhibitor, partial curve, poor fit]"}
{"compound": "O=C(Nc1ccc2nc(SCC(=O)N3CCOCC3)sc2c1)c1cccc(Br)c1", "Potency": "inconclusive: 39.8 µM [inhibitor, single point]"}
{"compound": "COc1cccc(/C=C/c2nc3ccccc3s2)c1OC(C)C", "Potency": "inconclusive: 28.2 µM [inhibitor, partial curve, poor fit]"}
{"compound": "NC(=O)CN1CCC(NC(=O)c2ccc(Oc3ccc(F)cc3)cc2)CC1", "activity change, negative = inhibition": "inactive: 2.21%"}
{"compound": "O=C1NCCCc2[nH]c(-c3nc(-c4ccncc4)n[nH]3)nc21", "Potency": "inconclusive: 15.8 µM [inhibitor, partial curve]"}
{"compound": "CNC(=O)c1nn(CC(=O)NCCc2ccc(F)cc2)c(=O)c2ccccc12", "activity change, negative = inhibition": "inactive: 5.74%"}
{"compound": "c1cnc(N2CCC3(CCCN3Cc3ccc(-c4ccn[nH]4)o3)CC2)nc1", "Potency": "inconclusive: 25.1 µM [inhibitor, single point]"}
{"compound": "O=C(NC1CC1)C1(c2ccc(Cl)cc2)CCOCC1", "activity change, negative = inhibition": "inactive: -6.78% [at 149 µM]"}
{"compound": "COc1ccc2nc(SCCC(=O)O)cc(C)c2c1", "Potency": "inconclusive: 28.2 µM [inhibitor, partial curve, poor fit]"}
{"compound": "CCC(C)NC(=O)c1nn(-c2ccc(C)cc2)nc1CO", "note": "(configuration not stated)", "Potency": "inconclusive: 3.16 µM [inhibitor, partial curve, poor fit]"}
{"compound": "COc1ccc(OC(=O)c2nc(SCc3ccccc3F)ncc2Cl)cc1", "Potency": "inconclusive: 15.8 µM [inhibitor, partial curve, poor fit]"}
{"compound": "O=C(O)/C=C/c1cccc(Br)c1", "activity change, negative = inhibition": "inactive: 11.6%"}
{"compound": "Nc1nccnc1C(=O)NCC1(c2ccccc2)CCC1", "Potency": "inconclusive: 35.5 µM [inhibitor, partial curve, poor fit]"}
{"compound": "CCN(Cc1ccccc1)C(=O)Cn1c(=O)n(-c2ccccc2)c(=O)c2c1c1cc(C)ccc1n2C", "Potency": "inconclusive: 15.8 µM [inhibitor, partial curve, poor fit]"}
{"compound": "O=C(N1CCN(c2ncccn2)CC1)C1(c2ccc(Cl)cc2)CCOCC1", "activity change, negative = inhibition": "inactive: -15.6% [at 115 µM]"}
{"compound": "Cc1ccc(CNC(=O)c2ccc3c(c2)CN(Cc2cccc(F)c2)CCO3)cc1", "Potency": "inconclusive: 25.1 µM [inhibitor, partial curve, poor fit]"}
{"compound": "O=c1cc(N2CCOCC2)oc2c(NCC3CCOCC3)nccc12", "Potency": "active: 31.6 µM"}
{"compound": "Cc1ccc(-c2cc(C(=O)Oc3ccc(C#N)cc3)no2)cc1", "Potency": "inconclusive: 3.16 µM [inhibitor, partial curve, poor fit]"}
{"compound": "CCC(=O)NNc1ncnc2c1cnn2-c1ccc(C)c(Cl)c1", "Potency": "inconclusive: 25.1 µM [inhibitor, partial curve, poor fit]"}
{"compound": "Cc1ccc(C)c(-n2nnc(C(=O)NC3CCCCC3)c2N)c1", "activity change, negative = inhibition": "inactive: 11.2%"}
{"compound": "O=C(NCc1ccncc1)C1CN(C(=O)c2ccccc2F)CC12CCOCC2", "note": "(configuration not stated)", "Potency": "inconclusive: 25.1 µM [inhibitor, single point]"}
{"compound": "CCc1nn(CC(=O)N2CCN(c3ccc(OC)cc3)CC2)c(=O)c2cc3sccc3n12", "activity change, negative = inhibition": "inconclusive: -53.2% [inhibitor]"}
{"compound": "CC(=O)c1c(C)[nH]c(C(=O)/C(C#N)=C/c2cccc(C)c2)c1C", "Potency": "inconclusive: 35.5 µM [inhibitor, partial curve, poor fit]"}
{"compound": "CC(Sc1ccc(F)cc1)C(=O)NC(c1ccccc1)c1ccccc1", "note": "(configuration not stated)", "activity change, negative = inhibition": "inactive: 30.4%"}
{"compound": "CS(=O)Cc1cccc(C(=O)O)c1", "note": "(configuration not stated)", "activity change, negative = inhibition": "inactive: 0.714%"}
{"compound": "COc1cccc(CN2Cc3nc(N(C)c4ccccc4)ccc3OCC2=O)c1", "Potency": "active: 31.6 µM"}
{"compound": "O=C(COc1ccccc1)Nc1nnc(-c2ccc(Cl)cc2)o1", "Potency": "inconclusive: 28.2 µM [inhibitor, partial curve, poor fit]"}
{"compound": "CC(=O)N1Cc2ccccc2CC2(CCN(CC3CCNC3)CC2)C1", "note": "(configuration not stated)", "activity change, negative = inhibition": "inactive: -14.8% [at 149 µM]"}
{"compound": "CC(=O)c1ccc(N2CCN(S(=O)(=O)c3ccc(-c4coc(C)n4)cc3)CC2)cc1", "Potency": "inconclusive: 31.6 µM [inhibitor, partial curve, poor fit]"}
{"compound": "CCc1ccc(N(C2C=CS(=O)(=O)C2)S(=O)(=O)c2ccc(C)cc2)cc1", "note": "(configuration not stated)", "activity change, negative = inhibition": "inactive: 21.1%"}
{"compound": "Cc1ccccc1COC(=O)c1nn(-c2ccccc2)nc1N", "Potency": "inconclusive: 31.6 µM [inhibitor, partial curve, poor fit]"}
{"compound": "CCCNC(=O)N[C@@H]1C[C@H](COc2ccc(S(C)(=O)=O)cc2)[C@@H](O)[C@H]1O", "Potency": "inconclusive: 35.5 µM [inhibitor, single point]"}
{"compound": "CCCCN(CC)CCNC(=O)C1CCN(S(=O)(=O)c2cccc3nsnc23)CC1", "Potency": "inconclusive: 2 µM [inhibitor, partial curve, poor fit]"}
{"compound": "Cc1ccc(C)c(S(=O)(=O)N2CCN(Cn3ncc4ccccc4c3=O)CC2)c1", "activity change, negative = inhibition": "inactive: 80.2%"}
{"compound": "COc1ccc(-c2nn3c(=O)cc(CN4CCN(C(=O)/C=C/c5ccccc5)CC4)nc3s2)cc1", "Potency": "inconclusive: 3.16 µM [inhibitor, partial curve, poor fit]"}
{"compound": "Cc1cc(=O)oc2c(C)c(OC(C)C(=O)NCCN3CCOCC3)ccc12", "note": "(configuration not stated)", "Potency": "inconclusive: 35.5 µM [inhibitor, single point]"}
{"compound": "COCCCN1C(=O)N(Cc2nncn2C(C)C)C(=O)C12CCNCC2", "Potency": "inconclusive: 12.6 µM [inhibitor, partial curve, poor fit]"}
{"compound": "O=[S+]([O-])(c1ccc(Cl)cc1)c1nnn2c1nc(NC1CC1)c1ccccc12", "activity change, negative = inhibition": "inactive: -23.7% [at 115 µM]"}
{"compound": "O=C(/C=N/O)Nc1ccccc1[N+](=O)[O-]", "activity change, negative = inhibition": "inactive: 10.5%"}
{"compound": "NC1CC(c2nnc(COc3ccc4c(c3)CCNCC4)n2C2CC2)C1", "note": "(configuration not stated)", "Potency": "inconclusive: 20 µM [inhibitor, single point]"}
{"compound": "CCCn1c(-n2nc(C)cc2C)nc2c1c(=O)n(CCN1CCOCC1)c(=O)n2C", "activity change, negative = inhibition": "inactive: 12.3%"}
{"compound": "COc1cccc(C(=O)N[C@@H]2CN(Cc3cccnc3)C[C@H]2CN(C)C)c1OC", "Potency": "inconclusive: 22.4 µM [inhibitor, single point]"}
{"compound": "CCn1ncc(CN2CCCC23CCN(c2ccc(C(F)(F)F)cn2)CC3)c1C", "Potency": "active: 28.2 µM"}
